# Among all 120,000 compounds or so, about 5,300 (4.4%) were called active. This list was built around the results that the source calls inconclusive (neither active nor inactive); the mix of calls is not that of the screen. Calls come from the whole dose curve; as a rule, active = well fitted inhibition curve with a large enough effect; inconclusive = small, poorly fitted or top-dose-only effect; inactive = no such curve, though single readings can be large or run the other way. A potency beside an inconclusive call is a rough fit, not a confirmed value.
# Experiment: qHTS Primary assay for Inhibitors of Plasmodium falciparum Dd2 growth in vitro; note: nearly all actives have a fitted effect of over 65% in size;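 for activity, negative = inhibition: plate controls were DMSO vehicle for no effect and reference drug for full effect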
# Conditions: P. falciparum Dd2 growth, SYBR Green, 72 h; activity, negative = inhibition: at 28.9 µM (top of the series) unless noted; series mostly up to 28.9 µM
# Summary of the method: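 Infected erythrocytes (Dd2, 0.3% parasitemia, 2.5% hematocrit final) are added to compound in RPMI-1640/Albumax II medium, grown 72 h at 37C in low oxygen, then lysed with saponin/Triton-X containing SYBR Green and read by fluorescence.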
# Potency is the fitted concentration of half-maximal effect; tags give direction and shape of the fitted curve.
Compound,Potency,"activity, negative = inhibition"
CCN(CC)C(=O)[C@@H]1CCC[C@@H](NC(=O)C2CCOCC2)CN(C)C(=O)C1,inactive,
Cc1cccc(NC(=O)CSC2=Nc3ccccc3C3=NC(CC(=O)NCc4cccs4)C(=O)N23)c1 (configuration not stated),active: 3.16 µM,
O=c1n(-c2ccc(F)cc2F)nc2n1CCN(Cc1ccccc1)C2,inactive,
Cc1cnc(CCNC(=O)Cn2c(=O)oc3ccccc32)n1C1CCC1,"inconclusive: 5.62 µM [inhibitor, partial curve, poor fit]",
Cc1nc(C)c(C(=O)N2CCCCCCNC(=O)[C@@H]3CCCC[C@@H]32)s1,"inconclusive: 12.6 µM [inhibitor, single point]",
CN(Cc1cc(C[C@H]2CNCC[C@H]2CC(=O)N2CCN(c3ccccc3)CC2)no1)c1ccccc1,"inconclusive: 10 µM [inhibitor, single point]",
COc1ccccc1CNC(=O)C1CCN(C(=O)c2ncn3c2COC(c2ccc(C)cc2)C3)CC1 (configuration not stated),"inconclusive: 3.98 µM [inhibitor, single point]",
CC(C)CNC(=O)C1c2ccccc2C(=O)N(C2CCCC2)C12CCCC2 (configuration not stated),inactive,
COc1ccc(NC(=O)N2Cc3[nH]cnc3C[C@H]2c2nc(-c3ccccc3)no2)cc1,inactive,
Cc1ccc(CCNC(=O)Cn2c(-c3cccs3)cc3ccccc32)cc1,active: 12.6 µM,
Cc1cccc(CNC(=O)c2cc3cc(S(=O)(=O)N4CCCCC4)ccc3n2C)c1,"inconclusive: 17.8 µM [inhibitor, single point]",
CCc1ccc(S(=O)(=O)c2cn(Cc3ccccc3)c3cc(N4CCCC4)c(F)cc3c2=O)cc1,"inconclusive: 5.62 µM [inhibitor, partial curve]",
Clc1ccc2c(c1)-n1cc(-c3ccccc3)nc1CO2,inactive,
Cc1ccc(Cl)cc1N1CCN(C(=O)CCS(=O)(=O)c2cc(Br)cc3c2N(C(=O)C2CC2)CC3)CC1,active: 10 µM,
CN1CCN(C(=O)CCC[C@@H]2[C@H]3CCCN4CCC[C@@H](CN2Cc2ccccc2)[C@@H]34)CC1,"inconclusive: 10 µM [inhibitor, partial curve, poor fit]",
COc1cccc(CN2C[C@@H](CO)[C@H](NC(=O)C3CC3)C2)n1,"inconclusive: 7.08 µM [inhibitor, partial curve, poor fit]",
Cc1cccc(C(=O)N2C(C(=O)NCc3ccco3)COC23CCN(C(=O)c2ccco2)CC3)c1 (configuration not stated),inactive,
COc1ccc(C(=O)c2cn(Cc3ccccc3F)c3cc4c(cc3c2=O)OCCO4)cc1OC,"inconclusive: 7.94 µM [inhibitor, partial curve]",
COc1ccc(OC)c(CNC(=O)[C@H]2CCC[C@H]2NC(=O)c2ccncc2)c1,"inconclusive: 3.98 µM [inhibitor, single point]",
Cn1cnc(S(=O)(=O)N2CCCN(C3CCOCC3)CCNC(=O)CC2c2ccccc2)c1 (configuration not stated),inactive,
CS(=O)(=O)N1CCC(OC2CCN(C(=O)Nc3ccccc3C(F)(F)F)CC2)CC1,inactive,
COc1ccc(-c2noc(CC(=O)N(C)c3cccc(C)c3)n2)cc1,"inconclusive: 11.2 µM [inhibitor, partial curve, poor fit]",
Cc1nc(-c2cnccn2)n(CC(=O)Nc2cccc(Cl)c2)c(=O)c1C,"inconclusive: 10 µM [inhibitor, single point]",

Compound,Potency,"activity, negative = inhibition"
O=C(NC1CCCCC1)[C@H]1CN2CCC1C[C@@H]2Cn1cc(CSc2ccccc2)nn1 (some centres not stated),"inconclusive: 10 µM [inhibitor, single point]",
Cn1c(=O)c2sccc2n2c(CCCC(=O)Nc3ccc(Oc4ccccc4)cc3)nnc12,"inconclusive: 10 µM [inhibitor, partial curve]",
CCC1CN(Cc2cccc(C)n2)CCC(=O)N1Cc1ccccc1 (configuration not stated),inactive,
COc1ccc(N2CCN(S(=O)(=O)c3ccc4c(c3)C(C(C)C)C(=O)N4)CC2)cc1 (configuration not stated),"inconclusive: 17.8 µM [inhibitor, single point]",
O=C(c1cccs1)N1CC[C@H](c2nnc(Cc3c[nH]c4ccccc34)o2)C1,"inconclusive: 14.1 µM [inhibitor, single point]",
COc1ccc(-c2cc(N3CCCC(NC(=O)c4ccccc4F)C3)n[nH]2)cc1 (configuration not stated),"inconclusive: 0.447 µM [inhibitor, partial curve, poor fit]",
CC(=O)Nc1ccc2nnc(-c3ccc(C(=O)N4CCCCCC4)cc3)n2c1,"inconclusive: 0.224 µM [inhibitor, full curve]",
Cc1ccc(C)c(N2CCN(C(=O)c3cc(C)nc4c3c(C)nn4-c3ccccc3)CC2)c1,active: 8.91 µM,
COc1cc(CN(C(=O)COc2ccc(F)cc2)c2ccccn2)cc(OC)c1OC,"inconclusive: 3.98 µM [inhibitor, single point]",
CC(C)(C)NC(=O)N1CCCC1c1nc(CCOCC2CCCC2)no1 (configuration not stated),"inconclusive: 17.8 µM [inhibitor, single point]",
CC(C)NC(=O)N1Cc2[nH]cnc2C[C@H]1C(=O)NCc1ccc(Cl)cc1,"inconclusive: 0.562 µM [inhibitor, full curve, poor fit]",
CCOCN(C(=O)Cn1c(COC)nc2ccccc21)c1c(C)cccc1CC,"inconclusive: 11.2 µM [inhibitor, single point]",
O=C(CC1CCN(C(=O)C2CCCC2)C1)N1CCOCC1 (configuration not stated),inactive,
COc1ccc(S(=O)(=O)N2Cc3ccccc3CC2C(=O)Nc2cc(Cl)ccc2Cl)cc1 (configuration not stated),active: 10 µM,
O=C(Nc1cccc(C(F)(F)F)c1)N[C@H]1CO[C@H]2[C@@H]1OC[C@@H]2n1cc(-c2ccccn2)nn1,"inconclusive: 20 µM [inhibitor, single point]",
Cc1noc(-c2cn(C3CCN(C(=O)Cc4cccc(Cl)c4)CC3)nn2)n1,"inconclusive: 3.55 µM [inhibitor, full curve, poor fit]",
Cc1cc2nc3n(c(=O)c2n1CC(=O)Nc1cccc(Cl)c1)CCC3,inactive,
CCOc1ccccc1CCCN1CC2(CCNCC2)CCC1=O,"inconclusive: 15.8 µM [inhibitor, single point]",
Cc1cc2nc3n(c(=O)c2n1CC(=O)NCCc1ccc(Cl)cc1)CCCCC3,inactive,
COc1ccc(-c2cccc(CN)c2)cc1,"inconclusive: 31.6 µM [inhibitor, single point]",
Cc1ccccc1NC(=O)c1cnc2c(c1)N(C(=O)Cc1ccc(C(C)C)cc1)CCC2,"inconclusive: 11.2 µM [inhibitor, partial curve, poor fit]",
COCCNC(=O)C(C)[C@@H]1CC[C@@]2(C)CC[C@H](NC(=O)c3cccc(F)c3)[C@@H](C)[C@@H]2[C@H]1O (some centres not stated),"inconclusive: 17.8 µM [inhibitor, single point]",
O=C(COc1ccccc1)NCC(c1ccc(Cl)cc1)N1CCCCC1 (configuration not stated),"inconclusive: 8.91 µM [inhibitor, partial curve, poor fit]",

Compound,Potency,"activity, negative = inhibition"
Cc1ccc(C)c(N2CCN(S(=O)(=O)c3c(C(=O)N4CCC(C)CC4)c(C)n(C)c3C)CC2)c1,"inconclusive: 17.8 µM [inhibitor, partial curve, poor fit]",
COC(=O)C[C@@H]1CCN(C(=O)COc2ccccc2)C[C@@H]1CC1=NCCc2cc(OC)c(OC)cc21,inactive,
Oc1ccc(-c2nc(C3CC3)nc3c2CN(Cc2ccc(F)cc2)CC3)cc1,active: 5.62 µM,
CS(=O)(=O)N1CC2(CCN(C(=O)CCC(=O)O)CC2)Cc2ccccc21,inactive,
CCOc1ccc(CNC(=O)C2CCN(C(=O)c3ccc(-n4ccc5ccccc54)s3)CC2)cc1,"inconclusive: 17.8 µM [inhibitor, single point]",
Cc1cccc(NC(=O)Cn2c(=O)n(CCCCCC(=O)NCc3ccccc3)c(=O)c3sccc32)c1,inactive,
CN1CC(=O)N(C2CCCNC2)Cc2c(NCCCc3ccccc3)ncnc21 (configuration not stated),inactive,
CCCn1cc2c3c(cccc31)CN(C(=O)Cc1ccc(OC)cc1)CC2,"inconclusive: 17.8 µM [inhibitor, single point]",
O=C(Cc1ccccc1Cl)Nc1ccc(-c2nnc3n2CCCC3)cc1,"inconclusive: 8.91 µM [inhibitor, single point]",
CCc1ccc(NC(=O)c2cc(S(=O)(=O)N3CCCC(C)C3)cn2C)cc1 (configuration not stated),"inconclusive: 17.8 µM [inhibitor, single point]",
O=C(CN1C(=O)NC2(CCCCC2)C1=O)Nc1cccc(C(F)(F)F)c1,inactive,
CC(=O)Nc1ccc(C(=O)N2CCn3c(nnc3C3CCCN3)C2)cc1 (configuration not stated),,inconclusive: -36.3% [inhibitor]
COCC1CCN(Cc2cc3cc4c(cc3nc2-c2ccc(Cl)cc2)OCO4)C1 (configuration not stated),inactive,
O=C(NCc1ccccc1Cl)c1ccccc1NC(=O)c1nsc2ccccc12,"inconclusive: 20 µM [inhibitor, single point]",
O=C(c1ccccc1F)N1CCC2(C1)C(=O)Nc1ccccc12 (configuration not stated),,inconclusive: -36.6% [inhibitor]
COCCCNC(=O)c1cc2c(-c3cccc(OC)c3)nn(C)c2s1,inactive,
CCC(=O)N1CCc2cc(Br)cc(S(=O)(=O)Nc3ccccc3C(=O)OC)c21,"inconclusive: 10 µM [inhibitor, partial curve]",
COCCCNc1ncc(C(=O)O)c(-c2ccccc2)n1,inactive,
COc1ccc(-c2nc(C(=O)Nc3cccc(C(C)=O)c3)nn2-c2ccccc2Cl)cc1,"inconclusive: 6.31 µM [inhibitor, single point]",
COc1ccccc1-c1ncc(CN2CCCC3(CCNCC3)CC2)cn1,inactive,
O=C(N1CCCC1c1nc(CCOc2ccc(F)cc2)no1)C1(c2ccccc2)CC1 (configuration not stated),"inconclusive: 12.6 µM [inhibitor, single point]",
